From the RNAGym collection of RNA variant scans (doi:10.7554/elife.90254)
Read counts are not given, so values of variants with three or more changes are uncertain.

B1: LINE1-mini (parent)
chain: GGCAGAGCUCAACACAGCGUGGCAAAGUGGCUGUGGCUAGACUGCC

Variants of: B1
Assay: self-cleavage, relative activity (ratio to wild type); higher = more cleavage; in vitro, sequencing; the parent is a self-cleaving ribozyme

Variant	self-cleavage
GGCAGAGCUCAAGACAGCGUGGAAAAGCGGCUGUCGGUAGACUGCC [C13G C23A U28C G35C C37G]	0.01
GGCAGAGCUCAAUACCGCGUGGCAAAGUGGCUGUGACUAUACUGCC [C13U A16C G36A G40U]	0.06
UGCAGAGCUGAACACAGCUUGGCAAAGUGGCUGUGGCUAGACUGCC [G1U C10G G19U]	0.02
GGCAGAGCUCUACACUGCGUGGCAAAGUUGCUGUGGCUAGACUGCC [A11U A16U G29U]	0.02
GGCAGAGCUGAACACAGCGUGGCAAACCGGCUGUGGCUAGACUGCC [C10G G27C U28C]	0.1
GGCAGAGCUCAACACAGCGUGGCAAAGUCGCUAUGGCUACACUGCC [G29C G33A G40C]	0.06
GGCAGAGCUGAACAUAGCGUGAAAAAGUGGCUGUGGCUAGACUGCC [C10G C15U G22A C23A]	0.12
GGCAGAGCUCAACUCAGCGUGACAAAGUGCAUGUGGCUAGACUGCC [A14U G22A G30C C31A]	0.07
GGCAGAGCUCAACACAGCGUGGCAAAGUGUCUGUGGCUAGAUCGCC [G30U C42U U43C]	0.07
GGCAGGGCGCAACACAGCGUGGCAAAGUGGCUGUGGAUAGACUGCC [A6G U9G C37A]	0.08
GGCAGAGCUCAAUACAGCGUGGCAACGUGGCUGAGGCUGGACUGCC [C13U A26C U34A A39G]	0.07
GGCAGAGCUCUACACAGCGUAGUAAAGUGGCUGUGGCUAGACUGGU [A11U G21A C23U C45G C46U]	0.01
AGCAGAGCUUCACGCAGCGUGGCUAAGUGGAUGUGGCUAGACUACC [G1A C10U A11C A14G A24U C31A G44A]	0.02
GGCAGAGCUCAACACAACGUGGCAAGGUGCCUGUGGCUAGACUGCC [G17A A26G G30C]	0.02
GGCAGAGCUCAACCCAGCGUGGCAACGUGGCUGUGGCUAAACUGCC [A14C A26C G40A]	0.01
CGCAGAUCUCAACGCAGCGUGGCAAAUUGGCUGUGGCUAGACUGCC [G1C G7U A14G G27U]	0.02
GGCAGCGCUAAACACAACUUGGCAAAGUGGCUGUGGCUAGACUGCC [A6C C10A G17A G19U]	0.02
GGCAGAGCUCAACACAGCGUGGAAAAGUGGCUGUCGCUAGACUCCC [C23A G35C G44C]	0.06
GGCAUAGCUCAACACAGCGUGGCAAAGUGGCUGCGGCUAGACUGCU [G5U U34C C46U]	0.03

Variant	self-cleavage
GGCAGAGCUCAACACAGCCUGGCAAAGUGGUUGUUGCUAGACUGCC [G19C C31U G35U]	0.05
UGCAGAGCUCAUCACAGCUUGUCAAAGUGGCUGUGGCUAGACUGCC [G1U A12U G19U G22U]	0.01
GGCAGAGCUCAACACGGCGUGGCAAAGUGGCUGUGGCUAGGCUUCC [A16G A41G G44U]	0.07
GGCAGAGCUCAAGCCAGCGUGGCAAAGUGGCUGUGGCUAUACGGCC [C13G A14C G40U U43G]	0.01
GGCUGAGCUUAACACAGCGUGGCAAAGUGUCUGUGGCUUGACUGCU [A4U C10U G30U A39U C46U]	0.04
GGGAGAGCUCAACACAGCGUGGCAAAGUGGCUGUCUCUAGACUGCC [C3G G35C G36U]	0.03
GGCAGAUCUCAACAAACCGUGGCAAAGUGGCUGUGGCUUCACUGCC [G7U C15A G17C A39U G40C]	0.29
GGCAGAGAUGAACACAGCGUGGCAAAGUGUCUGUGGCUAGACUGCC [C8A C10G G30U]	0.02
GGCAAAGCUCAACACAGCUUGGCAAAGUGGCUGUGGCUAGACUGUC [G5A G19U C45U]	0.07
GGCAGGGUUCAAGACAGCGUGGCAAAGUGGUUGUAGCUAGACUGCC [A6G C8U C13G C31U G35A]	0.17
GGCAGAGCUCAACACUGCCUGGCAUAGUGGCUGUGGAUAGACUGCC [A16U G19C A25U C37A]	0.05
AGCAGAGCUCAACACAGCGAGGCAAAGUGGCUGUGGCUUGACUGCC [G1A U20A A39U]	0.67
GGCAGAGCUCAACACAGCGUGGCAAAGUGGCUGUAGCCAGACUGUC [G35A U38C C45U]	0.14
GGCAGAGCUCACCACAGCGUGGCAAACUGGCUGUGGCUAGACUGUC [A12C G27C C45U]	0.02
GGAAGAGGCCAACACAGCAUGGCAAAGUGGCUGUGGCUAGACUGCC [C3A C8G U9C G19A]	0.75
GGAAGAGCUCAACACAUCGGGGCAAAGUGGCUGUAGCUAGACUGCC [C3A G17U U20G G35A]	0.03
GGCGGAGCUCAACCCAGCGUGGCAAAGUGGCAGUGGCUAGACUGCC [A4G A14C U32A]	0.07
GGCAGCGCUCAACACAGCGUGCUAAGGGGGCUGUGGCCAGACUGGC [A6C G22C C23U A26G U28G U38C C45G]	0.01
GGCGGAGCUCAACACAGCGUGGCAAUGUGGCUGUGGCUCUACUGCC [A4G A26U A39C G40U]	0.05

Variant	self-cleavage
GGCAGAGCUCAACACGGCGUGGCAAAGUGGCUUUGUUUAGACUGCC [A16G G33U G36U C37U]	0
UGGAGAGCUGAACACAGGGUGGCAAAGUGGCUGUGGCUAGACUGCC [G1U C3G C10G C18G]	0
GGCAGAGCUCUACACAGCGUGGAUAAGUGGCUGUGGCUGGACUGCC [A11U C23A A24U A39G]	0.02
GACAGAACUCAACACAGCAUGGCAAAGUGGCUGUGGCUAGACUGAG [G2A G7A G19A C45A C46G]	0.44
GGCAGAGCUGAACACAGCUUGGCAAAGUGGCUGUGGCUAGACUACC [C10G G19U G44A]	0.05
GGCAGAGCUCAACACAGCGUGGGACAGUGGCUGUGGAUAGACUGCC [C23G A25C C37A]	0.02
GGCACAGCUCAACACAGCGUGGCAACGUGGCUAUGGCUAGAUUGCC [G5C A26C G33A C42U]	0.06
GGCAGAGCUCAACACAGCGGUGCAAAGUGGCUGUGGAUAGACUGCC [U20G G21U C37A]	0.04
GGCUGAGCUCAACACAGCGUGGCAAAGUGGCUGUGGCUCAACUACC [A4U A39C G40A G44A]	0.01
GUCACAGCUCAACACAGCAUGGCAUAGUGGCUGUGGCUAUACUGCC [G2U G5C G19A A25U G40U]	0.02
GGGAGAGCUCAACACAACGUGGCAAAGUGGCUGUGGCCAGACUGCC [C3G G17A U38C]	0.05
GGCAGUGCUCACCGCAGCAUGGCAAAGGGGCUAUGGCUAGACUGCC [A6U A12C A14G G19A U28G G33A]	0
GGCUGGGCUCAACACAGCAUGGCAAAGUGGCUGUGGCUAGACUGCC [A4U A6G G19A]	0.04
GGUAAAGCUCAACAUAUCGUGGCAAGGUCGCUGUGGCUAGACUGUC [C3U G5A C15U G17U A26G G29C C45U]	0.09
GGCAGAGCUCAUCACAGCGUGACGAAGUGGCUGUGGCUAGACUGCC [A12U G22A A24G]	0.04
GUCAGAACUAAACACAGCGUGUCAAAGUGGCAGCGGAUAGACUGCC [G2U G7A C10A G22U U32A U34C C37A]	0.01
GGCAGCGCUAAACACGGCGUGGCAAAGUGACUGAGGCUAGACUGCC [A6C C10A A16G G30A U34A]	0.03
GGCAGAGCGCAACACAGUGUGGCAAUUUGGCUGUGUCUAGACUGCC [U9G C18U A26U G27U G36U]	0.14
